A lower IC50 marks a more sensitive line; where the fit passes the top or lowest dose, that dose stands as a limit. AUC sums up the same curve from the lowest dose to the 256-fold higher top dose: 1 means no effect, lower means more sensitive. A top dose marked as inferred comes from the curve model; the source does not state it. For some of these results: An entry number marks a drug with two screens in the source, which often give different values.
Assays:
AKT inhibitor VIII = compound: O=c1[nH]c2ccccc2n1C1CCN(Cc2ccc(-c3[nH]c4cc5ncnc5cc4nc3-c3ccccc3)cc2)CC1 [AKT inhibitor VIII]; test: Viability of human cancer cell lines after 72 h of drug (GDSC screen); conditions: top dose inferred
Protocol: (§1)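 Human cancer cell lines in 384-well plates, medium with 10% serum, drug for 72 h over a 256-fold dose range (nine 2-fold or five 4-fold steps up to the top dose). Adherent lines were fixed and stained with the nucleic acid dye Syto60, suspension lines read with resazurin; signal relative to control wells, capped at 0 and 100%. One two-parameter sigmoid per drug and line, fitted in a mixed model over all curves with the slope shared within a line.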

AICAR = compound: NC(=O)c1ncn([C@@H]2O[C@H](CO)[C@@H](O)[C@H]2O)c1N [AICAR]; test: as above; conditions: top dose 2000 µM; top dose inferred
Protocol: as §1

[1] = top dose 2.56 µM, screen: GDSC drug entry 171
[2] = top dose 10.24 µM, screen: GDSC drug entry 228

| Cell Line | AUC (AKT inhibitor VIII; [1]) | IC50 (AKT inhibitor VIII; [1]) [µM] | AUC (AKT inhibitor VIII; [2]) | IC50 (AKT inhibitor VIII; [2]) [µM] | AUC (AICAR) | IC50 (AICAR) [µM] |
| --- | --- | --- | --- | --- | --- | --- |
| SW1271 (small cell lung carcinoma, adherent) | 0.946 | > 2.56 | 0.925 | > 10.2 | 0.984 | > 2000 |
| MFE-296 (endometrium, adherent) | 0.789 | 1.23 | 0.903 | > 10.2 | 0.903 | > 2000 |
| NCI-H1693 (lung adenocarcinoma, adherent) | 0.947 | > 2.56 | 0.967 | > 10.2 | 0.855 | > 2000 |
| NY (osteosarcoma, adherent) | 0.947 | > 2.56 | 0.954 | > 10.2 | 0.826 | 1190 |
| FU-OV-1 (ovary, adherent) | 0.887 | > 2.56 | 0.91 | > 10.2 | 0.962 | > 2000 |
| IHH-4 (thyroid, semi-adherent) | 0.971 | > 2.56 | 0.977 | > 10.2 | 0.928 | > 2000 |
| GRANTA-519 (B-cell lymphoma, suspension) | 0.991 | > 2.56 | 0.713 | 2.38 | 0.814 | 956 |
| RCC10RGB (kidney, adherent) | 0.908 | > 2.56 | 0.936 | > 10.2 | 0.968 | > 2000 |
| TE-6 (oesophagus, adherent) | 0.976 | > 2.56 | 0.849 | 9.73 | 0.941 | > 2000 |
| SW1990 (pancreas, adherent) | 0.954 | > 2.56 | 0.983 | > 10.2 | 0.828 | 1530 |
| COR-L95 (small cell lung carcinoma, adherent) | 0.968 | > 2.56 | 0.884 | > 10.2 | 0.954 | > 2000 |
| KYSE-220 (oesophagus, adherent) | 0.942 | > 2.56 | 0.784 | 4.6 | 0.984 | > 2000 |
| TE-11 (oesophagus, adherent) | 0.969 | > 2.56 | 0.961 | > 10.2 | 0.416 | 75.2 |
| huH-1 (liver, adherent) | 0.972 | > 2.56 | 0.984 | > 10.2 | 0.857 | > 2000 |
| JVM-2 (lymphoid neoplasm, suspension) | 0.978 | > 2.56 | 0.873 | > 10.2 | 0.866 | > 2000 |
| MDA-MB-175-VII (breast, adherent) | 0.918 | > 2.56 | 0.658 | 1.84 | 0.956 | > 2000 |
| RERF-LC-Sq1 (lung squamous cell carcinoma, adherent) | 0.901 | > 2.56 | 0.92 | > 10.2 | 0.802 | 1590 |
| no-10 (glioma, adherent) | 0.971 | > 2.56 | 0.955 | > 10.2 | 0.921 | > 2000 |
| SCC90 (head and neck, adherent) | 0.925 | > 2.56 | 0.58 | 1.16 | 0.91 | > 2000 |
| NCI-H838 (lung adenocarcinoma, adherent) | 0.953 | > 2.56 | 0.979 | > 10.2 | 0.87 | 1990 |
| KOPN-8 (B-cell leukaemia, suspension) | 0.98 | > 2.56 | 0.764 | 3.22 | 0.685 | 379 |
| OC-314 (ovary, adherent) | – | – | 0.944 | > 10.2 | 0.963 | > 2000 |
| ECC10 (stomach, suspension) | 0.947 | > 2.56 | 0.863 | 9.51 | 0.79 | 933 |
| SU-DHL-5 (B-cell lymphoma, suspension) | 0.932 | 2.48 | 0.664 | 1.61 | 0.711 | 413 |
| RCC-ER (kidney, adherent) | – | – | 0.926 | > 10.2 | 0.877 | > 2000 |
| SKG-IIIa (cervix, adherent) | 0.97 | > 2.56 | 0.961 | > 10.2 | 0.894 | > 2000 |

| Cell Line | AUC (AKT inhibitor VIII; [1]) | IC50 (AKT inhibitor VIII; [1]) [µM] | AUC (AKT inhibitor VIII; [2]) | IC50 (AKT inhibitor VIII; [2]) [µM] | AUC (AICAR) | IC50 (AICAR) [µM] |
| --- | --- | --- | --- | --- | --- | --- |
| HCT-116 (large intestine, adherent) | 0.889 | > 2.56 | 0.907 | > 10.2 | 0.881 | 1910 |
| HCC1187 (breast, suspension) | 0.989 | > 2.56 | 0.803 | 4.8 | 0.835 | 1220 |
| NCI-H23 (lung adenocarcinoma, adherent) | 0.988 | > 2.56 | 0.939 | > 10.2 | 0.927 | > 2000 |
| VMRC-RCW (kidney, adherent) | 0.976 | > 2.56 | 0.918 | > 10.2 | 0.983 | > 2000 |
| NCI-H1666 (lung adenocarcinoma, semi-adherent) | 0.987 | > 2.56 | 0.956 | > 10.2 | 0.872 | > 2000 |
| HCC1395 (breast, adherent) | 0.972 | > 2.56 | 0.889 | > 10.2 | 0.956 | > 2000 |
| KU-19-19 (bladder, adherent) | 0.981 | > 2.56 | 0.983 | > 10.2 | 0.882 | > 2000 |
| Hs766T (pancreas, adherent) | 0.844 | > 2.56 | 0.956 | > 10.2 | 0.891 | > 2000 |
| SUP-B15 (lymphoblastic leukaemia, suspension) | 0.976 | > 2.56 | 0.408 | 0.362 | 0.566 | 188 |
| VMRC-RCZ (kidney, adherent) | 0.835 | 2.09 | 0.804 | 6.14 | 0.91 | > 2000 |
| EW-7 (Ewing sarcoma, semi-adherent) | 0.971 | > 2.56 | 0.668 | 1.76 | 0.903 | > 2000 |
| D-336MG (glioma, adherent) | 0.96 | > 2.56 | 0.849 | > 10.2 | 0.981 | > 2000 |
| EFM-19 (breast, adherent) | 0.637 | 0.464 | 0.585 | 1.23 | 0.667 | 466 |
| NCI-H1838 (lung adenocarcinoma, adherent) | 0.983 | > 2.56 | 0.924 | > 10.2 | 0.96 | > 2000 |
| Detroit562 (head and neck, adherent) | 0.889 | > 2.56 | 0.923 | > 10.2 | 0.824 | 1130 |
| HT-1197 (bladder, adherent) | 0.974 | > 2.56 | 0.948 | > 10.2 | 0.921 | > 2000 |
| RCC-JF (kidney, adherent) | – | – | 0.87 | > 10.2 | 0.889 | > 2000 |
| BB65-RCC (kidney, adherent) | 0.936 | > 2.56 | 0.954 | > 10.2 | 0.831 | 1530 |
| CAL-51 (breast, adherent) | 0.906 | > 2.56 | 0.956 | > 10.2 | 0.933 | > 2000 |
| CTB-1 (B-cell lymphoma, suspension) | 0.915 | > 2.56 | 0.828 | 9.73 | 0.739 | 792 |
| CCK-81 (large intestine, adherent) | 0.99 | > 2.56 | 0.763 | 3.49 | 0.952 | > 2000 |
| NCI-H292 (lung adenocarcinoma, adherent) | 0.888 | > 2.56 | 0.84 | 9.29 | 0.944 | > 2000 |
| GAK (melanoma, adherent) | 0.967 | > 2.56 | 0.974 | > 10.2 | 0.987 | > 2000 |
| OVMIU (ovary, adherent) | 0.924 | > 2.56 | 0.58 | 1.12 | 0.949 | > 2000 |
| WM-115 (melanoma, adherent) | 0.978 | > 2.56 | 0.802 | 6.44 | 0.883 | > 2000 |
| PCI-30 (head and neck, adherent) | 0.971 | > 2.56 | 0.942 | > 10.2 | 0.882 | > 2000 |

| Cell Line | AUC (AKT inhibitor VIII; [1]) | IC50 (AKT inhibitor VIII; [1]) [µM] | AUC (AKT inhibitor VIII; [2]) | IC50 (AKT inhibitor VIII; [2]) [µM] | AUC (AICAR) | IC50 (AICAR) [µM] |
| --- | --- | --- | --- | --- | --- | --- |
| SW1573 (lung adenocarcinoma, adherent) | 0.973 | > 2.56 | 0.963 | > 10.2 | 0.948 | > 2000 |
| SBC-1 (small cell lung carcinoma, suspension) | 0.989 | > 2.56 | 0.988 | > 10.2 | 0.844 | 1350 |
| MSTO-211H (mesothelioma, adherent) | 0.989 | > 2.56 | 0.991 | > 10.2 | 0.868 | 1540 |
| NCI-H2452 (mesothelioma, adherent) | 0.944 | > 2.56 | 0.984 | > 10.2 | 0.901 | > 2000 |
| AGS (stomach, adherent) | 0.928 | > 2.56 | 0.943 | > 10.2 | 0.943 | > 2000 |
| A2058 (melanoma, adherent) | 0.983 | > 2.56 | 0.932 | > 10.2 | 0.893 | 1930 |
| KP-2 (pancreas, adherent) | 0.983 | > 2.56 | 0.877 | > 10.2 | 0.711 | 521 |
| H2731 (mesothelioma, adherent) | 0.897 | > 2.56 | 0.727 | 3.15 | 0.977 | > 2000 |
| NB5 (neuroblastoma, adherent) | 0.985 | > 2.56 | 0.933 | > 10.2 | 0.926 | > 2000 |
| COLO-668 (small cell lung carcinoma, adherent) | 0.948 | > 2.56 | 0.713 | 2.56 | 0.956 | > 2000 |
| NCI-H64 (small cell lung carcinoma, suspension) | 0.98 | > 2.56 | 0.837 | 4.52 | 0.838 | 887 |
| NCI-H847 (small cell lung carcinoma, adherent) | 0.917 | > 2.56 | 0.861 | 6.11 | 0.837 | 992 |
| UACC-893 (breast, adherent) | 0.867 | > 2.56 | 0.664 | 2.14 | 0.965 | > 2000 |
| SISO (cervix, adherent) | 0.912 | > 2.56 | 0.876 | 9.4 | 0.891 | > 2000 |
| NB-4 (acute myeloid leukaemia, suspension) | 0.985 | > 2.56 | 0.698 | 2.04 | 0.724 | 468 |
| EBC-1 (lung squamous cell carcinoma, adherent) | 0.972 | > 2.56 | 0.883 | > 10.2 | 0.832 | 1510 |
| NCI-H1734 (lung adenocarcinoma, adherent) | 0.925 | > 2.56 | 0.904 | > 10.2 | 0.882 | > 2000 |
| HuP-T3 (pancreas, adherent) | 0.929 | > 2.56 | 0.937 | > 10.2 | 0.776 | 980 |
| U-87-MG (glioma, adherent) | 0.98 | > 2.56 | 0.926 | > 10.2 | 0.917 | > 2000 |
| Daudi (Burkitt lymphoma, suspension) | 0.94 | > 2.56 | 0.899 | 10.1 | 0.781 | 719 |
| QGP-1 (pancreas, adherent) | – | – | 0.924 | > 10.2 | 0.95 | > 2000 |
| SU-DHL-6 (B-cell lymphoma, suspension) | 0.943 | > 2.56 | 0.349 | 0.274 | 0.827 | 823 |
| WSU-NHL (lymphoid neoplasm, suspension) | 0.977 | > 2.56 | 0.93 | > 10.2 | 0.822 | 989 |
| NCI-H1435 (lung adenocarcinoma, semi-adherent) | 0.944 | > 2.56 | 0.966 | > 10.2 | 0.88 | 1680 |
